Our source for the binding values is PMC11335243.

Chains of the proteins cited; added tags and fusions are not shown. Lines headed by an entry give the natural chain unless they say otherwise; changes in a name come on top. Residues count along the entry.
UniProt Q6ZNE5: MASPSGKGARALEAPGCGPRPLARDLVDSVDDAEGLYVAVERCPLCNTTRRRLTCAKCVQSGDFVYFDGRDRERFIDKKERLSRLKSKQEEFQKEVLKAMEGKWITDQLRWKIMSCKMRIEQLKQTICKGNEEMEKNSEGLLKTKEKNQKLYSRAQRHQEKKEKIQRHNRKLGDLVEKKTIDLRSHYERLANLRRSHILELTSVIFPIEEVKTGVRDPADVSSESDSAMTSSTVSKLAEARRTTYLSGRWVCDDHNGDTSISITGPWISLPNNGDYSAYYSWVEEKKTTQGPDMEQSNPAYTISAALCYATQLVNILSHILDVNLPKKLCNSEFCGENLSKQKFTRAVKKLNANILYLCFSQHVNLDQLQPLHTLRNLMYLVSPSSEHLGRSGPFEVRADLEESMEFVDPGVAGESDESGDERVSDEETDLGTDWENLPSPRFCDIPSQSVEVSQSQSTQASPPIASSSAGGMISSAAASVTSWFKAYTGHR
GST-ATG14 247-332: residues 247-332 of Q6ZNE5
UniProt D4A4K3: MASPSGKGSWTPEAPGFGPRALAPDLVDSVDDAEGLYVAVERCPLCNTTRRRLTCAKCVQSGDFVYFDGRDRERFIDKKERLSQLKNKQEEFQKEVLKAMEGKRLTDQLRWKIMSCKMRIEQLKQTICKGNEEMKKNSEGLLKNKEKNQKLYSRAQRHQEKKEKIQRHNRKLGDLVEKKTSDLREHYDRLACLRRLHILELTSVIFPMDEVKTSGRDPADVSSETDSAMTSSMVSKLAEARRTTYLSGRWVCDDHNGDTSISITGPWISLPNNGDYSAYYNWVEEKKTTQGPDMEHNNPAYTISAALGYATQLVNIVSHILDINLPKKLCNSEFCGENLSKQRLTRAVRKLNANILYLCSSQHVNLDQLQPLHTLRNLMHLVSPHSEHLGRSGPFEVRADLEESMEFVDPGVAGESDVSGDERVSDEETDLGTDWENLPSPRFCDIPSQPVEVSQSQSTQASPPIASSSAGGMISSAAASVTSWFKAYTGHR
UniProt P08592, residues 18-770: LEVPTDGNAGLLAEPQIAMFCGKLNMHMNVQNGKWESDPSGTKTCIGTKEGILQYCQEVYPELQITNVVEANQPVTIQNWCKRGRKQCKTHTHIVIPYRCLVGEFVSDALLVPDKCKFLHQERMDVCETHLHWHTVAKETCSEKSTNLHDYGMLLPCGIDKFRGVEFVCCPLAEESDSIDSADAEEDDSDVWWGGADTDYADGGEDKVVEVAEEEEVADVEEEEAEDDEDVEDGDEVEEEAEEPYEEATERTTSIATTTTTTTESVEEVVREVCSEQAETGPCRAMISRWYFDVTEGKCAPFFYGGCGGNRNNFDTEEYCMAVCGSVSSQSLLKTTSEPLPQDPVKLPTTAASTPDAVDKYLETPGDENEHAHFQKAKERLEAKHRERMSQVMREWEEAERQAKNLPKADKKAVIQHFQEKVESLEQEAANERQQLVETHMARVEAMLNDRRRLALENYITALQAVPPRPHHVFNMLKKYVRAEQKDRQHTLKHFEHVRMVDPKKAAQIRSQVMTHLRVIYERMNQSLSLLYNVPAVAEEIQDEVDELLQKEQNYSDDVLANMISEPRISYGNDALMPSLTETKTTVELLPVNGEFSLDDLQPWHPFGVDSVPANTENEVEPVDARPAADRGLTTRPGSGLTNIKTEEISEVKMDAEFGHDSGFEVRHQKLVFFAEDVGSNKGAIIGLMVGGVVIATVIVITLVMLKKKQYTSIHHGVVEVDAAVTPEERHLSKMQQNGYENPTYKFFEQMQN
UniProt Q91XJ1: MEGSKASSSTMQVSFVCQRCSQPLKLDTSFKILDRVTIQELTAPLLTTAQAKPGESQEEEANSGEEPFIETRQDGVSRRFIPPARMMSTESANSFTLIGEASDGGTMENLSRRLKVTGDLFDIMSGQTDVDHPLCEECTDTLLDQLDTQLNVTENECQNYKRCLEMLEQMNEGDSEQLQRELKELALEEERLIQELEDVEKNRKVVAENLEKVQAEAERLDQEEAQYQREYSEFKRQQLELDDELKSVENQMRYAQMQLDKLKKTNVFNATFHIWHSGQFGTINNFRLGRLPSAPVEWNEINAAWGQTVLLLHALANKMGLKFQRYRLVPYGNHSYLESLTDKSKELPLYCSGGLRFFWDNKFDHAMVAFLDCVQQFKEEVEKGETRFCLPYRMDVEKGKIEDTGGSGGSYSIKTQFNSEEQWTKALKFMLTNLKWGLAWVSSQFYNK
UniProt Q14457: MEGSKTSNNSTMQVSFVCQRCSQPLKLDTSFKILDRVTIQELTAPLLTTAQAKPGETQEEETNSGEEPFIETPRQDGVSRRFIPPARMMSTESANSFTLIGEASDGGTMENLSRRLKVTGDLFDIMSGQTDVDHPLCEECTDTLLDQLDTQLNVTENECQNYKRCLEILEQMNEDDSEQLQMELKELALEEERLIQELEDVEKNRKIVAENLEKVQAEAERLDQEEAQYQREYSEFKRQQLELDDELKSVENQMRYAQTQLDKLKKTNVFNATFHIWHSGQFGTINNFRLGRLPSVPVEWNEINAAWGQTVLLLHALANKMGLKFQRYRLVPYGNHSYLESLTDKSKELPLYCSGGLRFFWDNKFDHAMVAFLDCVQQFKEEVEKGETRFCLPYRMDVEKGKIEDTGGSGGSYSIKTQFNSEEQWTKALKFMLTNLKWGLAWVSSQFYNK
UniProt P0C0R5: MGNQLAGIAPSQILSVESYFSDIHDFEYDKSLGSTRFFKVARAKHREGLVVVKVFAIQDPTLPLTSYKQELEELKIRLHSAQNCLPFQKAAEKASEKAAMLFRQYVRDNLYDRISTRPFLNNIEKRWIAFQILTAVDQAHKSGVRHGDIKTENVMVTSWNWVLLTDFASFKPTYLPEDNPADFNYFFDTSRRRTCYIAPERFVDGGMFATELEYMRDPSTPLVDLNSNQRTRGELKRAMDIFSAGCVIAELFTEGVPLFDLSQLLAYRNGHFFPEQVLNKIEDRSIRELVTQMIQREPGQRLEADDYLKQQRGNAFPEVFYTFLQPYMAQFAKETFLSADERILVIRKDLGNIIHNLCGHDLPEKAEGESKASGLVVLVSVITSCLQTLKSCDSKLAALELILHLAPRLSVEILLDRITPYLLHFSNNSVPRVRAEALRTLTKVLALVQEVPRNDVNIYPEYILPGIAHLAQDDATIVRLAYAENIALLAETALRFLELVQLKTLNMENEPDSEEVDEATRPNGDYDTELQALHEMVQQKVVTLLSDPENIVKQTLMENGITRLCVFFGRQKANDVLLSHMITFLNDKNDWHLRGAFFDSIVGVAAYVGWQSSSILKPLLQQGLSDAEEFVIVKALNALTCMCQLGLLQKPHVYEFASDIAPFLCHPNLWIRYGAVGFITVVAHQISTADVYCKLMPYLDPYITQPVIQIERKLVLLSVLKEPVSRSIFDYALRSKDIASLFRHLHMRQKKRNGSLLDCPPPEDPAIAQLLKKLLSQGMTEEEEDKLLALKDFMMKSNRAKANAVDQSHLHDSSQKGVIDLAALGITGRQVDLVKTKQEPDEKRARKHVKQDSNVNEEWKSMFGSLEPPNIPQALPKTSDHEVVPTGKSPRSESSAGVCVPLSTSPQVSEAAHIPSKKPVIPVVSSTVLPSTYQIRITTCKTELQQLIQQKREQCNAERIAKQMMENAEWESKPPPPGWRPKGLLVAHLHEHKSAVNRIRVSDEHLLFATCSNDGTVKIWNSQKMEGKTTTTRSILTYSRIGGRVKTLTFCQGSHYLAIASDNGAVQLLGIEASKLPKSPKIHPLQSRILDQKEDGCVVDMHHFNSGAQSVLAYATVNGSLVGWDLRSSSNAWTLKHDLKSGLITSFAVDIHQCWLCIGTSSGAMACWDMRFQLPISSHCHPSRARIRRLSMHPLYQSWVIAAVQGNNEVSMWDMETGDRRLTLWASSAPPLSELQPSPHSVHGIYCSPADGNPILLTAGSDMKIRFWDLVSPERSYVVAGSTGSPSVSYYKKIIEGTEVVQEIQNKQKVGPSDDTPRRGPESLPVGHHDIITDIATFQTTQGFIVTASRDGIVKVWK
UniProt Q99570: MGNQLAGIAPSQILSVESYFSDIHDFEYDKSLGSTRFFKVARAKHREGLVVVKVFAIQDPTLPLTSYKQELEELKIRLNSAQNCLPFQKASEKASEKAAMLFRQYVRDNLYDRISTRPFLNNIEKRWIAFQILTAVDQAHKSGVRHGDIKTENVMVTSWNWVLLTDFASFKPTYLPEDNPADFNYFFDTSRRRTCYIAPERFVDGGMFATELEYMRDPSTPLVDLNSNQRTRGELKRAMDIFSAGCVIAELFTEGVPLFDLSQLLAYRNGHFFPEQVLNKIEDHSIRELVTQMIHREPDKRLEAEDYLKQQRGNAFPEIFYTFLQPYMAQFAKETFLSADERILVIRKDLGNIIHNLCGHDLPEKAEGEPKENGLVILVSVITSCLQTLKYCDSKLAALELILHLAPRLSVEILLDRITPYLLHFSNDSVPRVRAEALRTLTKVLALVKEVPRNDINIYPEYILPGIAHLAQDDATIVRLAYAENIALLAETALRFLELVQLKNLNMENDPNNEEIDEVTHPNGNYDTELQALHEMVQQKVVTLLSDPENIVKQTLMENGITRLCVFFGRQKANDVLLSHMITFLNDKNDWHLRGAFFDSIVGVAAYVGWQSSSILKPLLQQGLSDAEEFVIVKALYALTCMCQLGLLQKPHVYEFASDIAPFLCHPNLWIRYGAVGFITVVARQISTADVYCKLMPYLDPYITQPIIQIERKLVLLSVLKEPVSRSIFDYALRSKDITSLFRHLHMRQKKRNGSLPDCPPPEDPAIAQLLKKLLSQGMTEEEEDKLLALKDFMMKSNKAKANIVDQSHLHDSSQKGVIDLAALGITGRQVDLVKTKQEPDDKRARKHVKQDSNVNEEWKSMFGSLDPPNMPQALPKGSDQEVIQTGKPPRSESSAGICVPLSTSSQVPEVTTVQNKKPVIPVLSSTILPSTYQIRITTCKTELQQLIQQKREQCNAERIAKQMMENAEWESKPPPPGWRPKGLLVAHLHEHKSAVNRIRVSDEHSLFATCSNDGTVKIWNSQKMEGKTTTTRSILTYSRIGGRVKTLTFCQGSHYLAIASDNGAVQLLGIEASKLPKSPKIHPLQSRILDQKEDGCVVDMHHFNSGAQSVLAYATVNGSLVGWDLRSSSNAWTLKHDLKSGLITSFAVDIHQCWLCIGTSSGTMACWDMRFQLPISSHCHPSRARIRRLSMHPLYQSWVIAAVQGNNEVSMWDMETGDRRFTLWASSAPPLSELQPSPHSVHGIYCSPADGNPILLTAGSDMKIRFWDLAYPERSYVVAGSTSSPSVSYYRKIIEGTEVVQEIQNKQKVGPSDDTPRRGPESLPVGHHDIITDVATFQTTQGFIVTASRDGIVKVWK
UniProt O88763: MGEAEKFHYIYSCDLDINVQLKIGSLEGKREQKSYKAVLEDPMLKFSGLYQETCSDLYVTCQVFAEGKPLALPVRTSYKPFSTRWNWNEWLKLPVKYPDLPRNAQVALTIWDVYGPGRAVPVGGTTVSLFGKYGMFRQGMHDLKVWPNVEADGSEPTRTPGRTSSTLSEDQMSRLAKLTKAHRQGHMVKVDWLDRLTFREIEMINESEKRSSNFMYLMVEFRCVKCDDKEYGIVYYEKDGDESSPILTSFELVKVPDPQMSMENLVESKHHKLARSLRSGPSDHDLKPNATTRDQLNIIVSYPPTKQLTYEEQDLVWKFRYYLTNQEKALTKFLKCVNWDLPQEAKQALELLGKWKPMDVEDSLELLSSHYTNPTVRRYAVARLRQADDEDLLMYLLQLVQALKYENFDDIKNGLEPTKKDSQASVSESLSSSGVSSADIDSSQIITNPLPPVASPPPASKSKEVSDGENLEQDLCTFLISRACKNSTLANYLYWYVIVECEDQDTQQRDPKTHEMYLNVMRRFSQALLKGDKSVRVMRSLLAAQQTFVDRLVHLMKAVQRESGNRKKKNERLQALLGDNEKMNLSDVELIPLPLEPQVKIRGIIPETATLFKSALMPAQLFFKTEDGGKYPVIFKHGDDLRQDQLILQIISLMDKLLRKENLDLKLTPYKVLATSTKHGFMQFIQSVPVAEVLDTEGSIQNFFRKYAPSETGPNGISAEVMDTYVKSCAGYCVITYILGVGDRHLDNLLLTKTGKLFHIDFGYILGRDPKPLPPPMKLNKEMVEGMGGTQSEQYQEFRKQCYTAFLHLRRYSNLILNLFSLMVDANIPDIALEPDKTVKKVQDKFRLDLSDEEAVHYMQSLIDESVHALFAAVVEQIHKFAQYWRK

The target in test [1] is GST-ATG14 247-332 (human) (UniProt Q6ZNE5). Put plainly: pull-down; CHO cells co-transfected with GST-ATG14 247-332 + APP, with or without GULP1 or GULP1m; GST baits captured from cell lysates by glutathione resins; immunoblot. (In general: Immunoblotting shows a protein as a band on a membrane.)
Test [2] concerns the target ATG14 (endogenous, rat brain) (rat (endogenous in rat brain)) (UniProt D4A4K3). Briefly: co-IP; endogenous ATG14 immunoprecipitated from total rat brain lysate with an anti-ATG14 antibody; immunoblot.
Test [3] concerns the target T1, GST-GULP1 (UniProt Q9UBP9).
T1 sequence: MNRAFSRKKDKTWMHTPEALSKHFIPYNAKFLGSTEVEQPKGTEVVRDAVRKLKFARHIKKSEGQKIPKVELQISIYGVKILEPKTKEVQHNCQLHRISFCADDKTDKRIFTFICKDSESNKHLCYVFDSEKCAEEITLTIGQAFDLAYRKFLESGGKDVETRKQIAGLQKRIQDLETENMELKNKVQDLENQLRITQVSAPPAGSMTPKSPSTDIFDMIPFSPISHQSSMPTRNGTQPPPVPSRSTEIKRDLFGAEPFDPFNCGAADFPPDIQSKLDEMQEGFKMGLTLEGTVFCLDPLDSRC
Briefly: pull-down; bacterially expressed GST-GULP1 baits (whole or fragments) on Glutathione Sepharose 4B, incubated with transfected cell lysates at 4 °C for an hour; lysis buffer 50 mM Tris-HCl pH 7.5, 150 mM NaCl, 1 mM EDTA, 1% Triton X100; immunoblot; only the target purified.

Test [4] has as its target T2, GST-GULP1 1-168 (bacterial bait) (UniProt Q9UBP9).
T2 sequence: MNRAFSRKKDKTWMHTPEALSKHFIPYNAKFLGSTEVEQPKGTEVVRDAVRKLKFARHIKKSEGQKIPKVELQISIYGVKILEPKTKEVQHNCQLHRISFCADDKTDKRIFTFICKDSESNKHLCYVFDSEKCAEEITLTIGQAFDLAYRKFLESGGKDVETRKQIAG
The test is described as above.

Test [5] concerns the target His6-ATG14 (human) (UniProt Q6ZNE5). Briefly: pull-down; bacterially expressed His6-ATG14 baits; GST-GULP1 fragments in transfected cell lysate; GST proteins immunoblotted; only the target purified.
Test [6] addresses GST-ATG14 247-332 (human) (UniProt Q6ZNE5). Briefly: pull-down; CHO cells co-transfected with GST-ATG14 247-332 + APP, with or without GULP1 or GULP1m; GST baits captured from cell lysates by glutathione resins; immunoblot. This is another data set of the same source.
Test [7] addresses His6-ATG14 (human) (UniProt Q6ZNE5). Briefly: pull-down; in vitro binding: GST or GST-GULP1 purified from E. coli mixed with Ni-NTA resins coated with His6-ATG14 for 16 h at 4 °C; detected by rat anti-GST; both purified.
Test [8] deals with Flag-tagged full-length human ATG14 (human) (UniProt Q6ZNE5). Briefly: co-IP; HEK293 cells transfected with ATG14-FLAG and GULP1; ATG14-FLAG immunoprecipitated with mouse anti-FLAG M2 for 16 h at 4 °C, protein G sepharose; immunoblot.
Test [9] shares this target. Briefly: proximity ligation; Duolink in situ PLA in HEK293 cells transfected with GULP1 + ATG14-FLAG; goat anti-GULP1 P19 and mouse anti-FLAG M2.

Like-named read-outs stand apart in the source and are kept apart here. These are yes or no findings as the source states them, for the method shown. For some assays here: In cells and extracts the contact can be indirect. Some results given as binding are weak or reduced against the parent protein; the word gives no strength. For some assays here: Tags and fused reporters may be left off the sequences shown.

In the case of APP695 (from UniProt P05067-4 18-695), the binding result in test [1] is “binds”.

As for “APP (endogenous, rat brain) (from UniProt P08592 18-770)”, the binding entry in test [2] is “binds”.

For the molecule “Beclin1 (endogenous, rat brain) (from UniProt Q91XJ1 1-448)”, the binding entry in [2] was “binds”.

For the molecule Beclin1 (from UniProt Q14457 1-450), the binding result in test [3] was “no binding”.

Take “Flag-tagged full-length human ATG14 (from UniProt Q6ZNE5 1-492)”: the binding entry in test [3] and in test [4] was “binds” in each case.

“Vps15 (endogenous, rat brain) (from UniProt P0C0R5 1-1358)”: the binding result in test [2] is on record as “binds”.

With Vps15 (from UniProt Q99570 1-1358), the binding entry in test [3] is listed as “no binding”.

As to “Vps34 (endogenous, rat brain) (from UniProt O88763 1-887)”, the binding entry in test [2] is “binds”.

B1: GULP1 (endogenous, rat brain) (protein, UniProt Q5PQS4 1-304)
chain: MNRAFSRKKDKTWMHMPEALSKHYVPYNAKFLGSTEVEQPKGTEVVRDAVRKLKFARHIKKSEGQKIPKVELQISIYGVKILEPKTKEVQHNCQLHRISFCADDKTDKRIFTFICKDSESNKHLCFVFDSEKCAEEITLTIGQAFDLAYRKFLESGGKDVETRKQIAGMQKRIQDLETENMELKNKVQDLENRLRTTQVSSTPAGGVTVTSPSTDIFDMIPFSPISHPSPTSAGNGTQLPPIPSRSSEIKRDLFGAEPFDPFNCGAGDFPPDIQSKLDEMQEGFKMGLTLEGTVFCLDPLDSRC
Turning to B1, the binding entry in test [2] was “binds”.

B2: GST-GULP1 1-56 (domain or fragment, UniProt Q9UBP9 1-56)
chain: MNRAFSRKKDKTWMHTPEALSKHFIPYNAKFLGSTEVEQPKGTEVVRDAVRKLKFA
In the case of B2, the binding entry in [5] is “no binding”.

B3: GULP1 (transfected in CHO cells) (protein, UniProt Q9UBP9 1-304)
chain: MNRAFSRKKDKTWMHTPEALSKHFIPYNAKFLGSTEVEQPKGTEVVRDAVRKLKFARHIKKSEGQKIPKVELQISIYGVKILEPKTKEVQHNCQLHRISFCADDKTDKRIFTFICKDSESNKHLCYVFDSEKCAEEITLTIGQAFDLAYRKFLESGGKDVETRKQIAGLQKRIQDLETENMELKNKVQDLENQLRITQVSAPPAGSMTPKSPSTDIFDMIPFSPISHQSSMPTRNGTQPPPVPSRSTEIKRDLFGAEPFDPFNCGAADFPPDIQSKLDEMQEGFKMGLTLEGTVFCLDPLDSRC
On to B3, for which the binding entry in [6] is given as “binds”.

B4: GST-GULP1 (protein, UniProt Q9UBP9 1-304)
chain: MNRAFSRKKDKTWMHTPEALSKHFIPYNAKFLGSTEVEQPKGTEVVRDAVRKLKFARHIKKSEGQKIPKVELQISIYGVKILEPKTKEVQHNCQLHRISFCADDKTDKRIFTFICKDSESNKHLCYVFDSEKCAEEITLTIGQAFDLAYRKFLESGGKDVETRKQIAGLQKRIQDLETENMELKNKVQDLENQLRITQVSAPPAGSMTPKSPSTDIFDMIPFSPISHQSSMPTRNGTQPPPVPSRSTEIKRDLFGAEPFDPFNCGAADFPPDIQSKLDEMQEGFKMGLTLEGTVFCLDPLDSRC
In the case of B4, in test [7], the binding entry is on record as “binds”.

B5: HA-tagged full-length GULP1 (protein, UniProt Q9UBP9 1-304)
chain: MNRAFSRKKDKTWMHTPEALSKHFIPYNAKFLGSTEVEQPKGTEVVRDAVRKLKFARHIKKSEGQKIPKVELQISIYGVKILEPKTKEVQHNCQLHRISFCADDKTDKRIFTFICKDSESNKHLCYVFDSEKCAEEITLTIGQAFDLAYRKFLESGGKDVETRKQIAGLQKRIQDLETENMELKNKVQDLENQLRITQVSAPPAGSMTPKSPSTDIFDMIPFSPISHQSSMPTRNGTQPPPVPSRSTEIKRDLFGAEPFDPFNCGAADFPPDIQSKLDEMQEGFKMGLTLEGTVFCLDPLDSRC
In the case of B5, the binding entry in test [8] is given as “binds”.

B6: GULP1 (transfected, tag not told) (protein, UniProt Q9UBP9 1-304)
chain: MNRAFSRKKDKTWMHTPEALSKHFIPYNAKFLGSTEVEQPKGTEVVRDAVRKLKFARHIKKSEGQKIPKVELQISIYGVKILEPKTKEVQHNCQLHRISFCADDKTDKRIFTFICKDSESNKHLCYVFDSEKCAEEITLTIGQAFDLAYRKFLESGGKDVETRKQIAGLQKRIQDLETENMELKNKVQDLENQLRITQVSAPPAGSMTPKSPSTDIFDMIPFSPISHQSSMPTRNGTQPPPVPSRSTEIKRDLFGAEPFDPFNCGAADFPPDIQSKLDEMQEGFKMGLTLEGTVFCLDPLDSRC
B6: in [9], the binding result is on record as “binds”.

B7: GST-GULP1 1-112 (domain or fragment, UniProt Q9UBP9 1-112)
chain: MNRAFSRKKDKTWMHTPEALSKHFIPYNAKFLGSTEVEQPKGTEVVRDAVRKLKFARHIKKSEGQKIPKVELQISIYGVKILEPKTKEVQHNCQLHRISFCADDKTDKRIFT
With B7, the binding entry in test [5] is reported as “binds”.

B8: GST-GULP1 1-168 (in lysate, Fig. 2G) (domain or fragment, UniProt Q9UBP9 1-168)
chain: MNRAFSRKKDKTWMHTPEALSKHFIPYNAKFLGSTEVEQPKGTEVVRDAVRKLKFARHIKKSEGQKIPKVELQISIYGVKILEPKTKEVQHNCQLHRISFCADDKTDKRIFTFICKDSESNKHLCYVFDSEKCAEEITLTIGQAFDLAYRKFLESGGKDVETRKQIAG
As to B8, the binding entry in [5] is “binds”.
